Data taken from the supplement of paper PMC7826260.
Some of the results follow. Each Rep nickase domain was tested in vitro on the same pool of single strands for 1 h at 37 °C with 3 µM enzyme; only the middle of the 90-letter strands is printed. A value is the log2 ratio of uncut reads to the pool without enzyme; strong cutting gives strongly negative numbers. There is no active / inactive call. Reads are scaled to the total; where an enzyme cuts many sequences, the uncut ones exceed 0.

Columns and labels:
Experiment in all cases: uncleaved DNA left, log2 of reads against the no-enzyme library (log2 ratio); higher = less cleavage (more negative = more Rep cleavage of the k-mer); sequences stand for … in CTCGTCCG…ACCGGAGA
[1] = tested on: T1, Rep nickase domain of Muscovy duck circovirus
T1 sequence (protein, residues 1-111, tag omitted): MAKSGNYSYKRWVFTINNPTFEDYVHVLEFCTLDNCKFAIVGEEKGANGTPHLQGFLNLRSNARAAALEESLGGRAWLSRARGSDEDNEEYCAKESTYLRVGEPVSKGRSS
Protocol: (§1)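 A pool of 90-nt single-stranded DNAs with seven random bases just before the constant AC of the nick site (name = the seven bases) was cut by 3 µM recombinant His6-SUMO-tagged Rep nickase domain (300 nM DNA, 50 mM HEPES pH 8.0, 50 mM NaCl, 1 mM MnCl2, 1 h, 37 °C, three replicates). Uncut DNA was amplified and sequenced.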

[2] = tested on: T2, Rep nickase domain of banana bunchy top virus
T2 sequence (protein, residues 1-94, tag omitted): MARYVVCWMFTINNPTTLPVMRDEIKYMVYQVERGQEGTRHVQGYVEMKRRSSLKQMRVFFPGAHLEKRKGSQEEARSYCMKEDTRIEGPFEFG
Protocol: as §1

[3] = tested on: T3, Rep nickase domain of cabbage leaf curl virus
T3 sequence (protein, residues 1-116, tag omitted): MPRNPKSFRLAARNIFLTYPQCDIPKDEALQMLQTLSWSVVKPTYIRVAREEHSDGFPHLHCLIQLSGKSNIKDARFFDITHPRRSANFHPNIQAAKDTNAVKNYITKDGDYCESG
Protocol: as §1

[4] = tested on: T4, Rep nickase domain of chickpea chlorotic dwarf virus
T4 sequence (protein, residues 1-124, tag omitted): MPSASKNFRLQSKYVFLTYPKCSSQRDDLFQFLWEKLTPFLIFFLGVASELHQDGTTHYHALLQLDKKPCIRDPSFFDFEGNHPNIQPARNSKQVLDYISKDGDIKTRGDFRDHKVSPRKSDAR
Protocol: as §1

[5] = tested on: T5, Rep nickase domain of faba bean necrotic yellows virus
T5 sequence (protein, residues 1-98, tag omitted): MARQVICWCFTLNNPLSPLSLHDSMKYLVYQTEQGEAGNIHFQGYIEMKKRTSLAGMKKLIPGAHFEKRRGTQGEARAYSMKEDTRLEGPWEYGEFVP
Protocol: as §1

[6] = tested on: T6, Rep nickase domain of maize striate mosaic virus
T6 sequence (protein, residues 1-117, tag omitted): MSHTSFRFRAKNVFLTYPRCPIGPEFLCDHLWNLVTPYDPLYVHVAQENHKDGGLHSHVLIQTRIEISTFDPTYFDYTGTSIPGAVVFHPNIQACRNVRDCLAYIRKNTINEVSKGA
Protocol: as §1

[7] = tested on: T7, Rep nickase domain of porcine circovirus 2
T7 sequence (protein, residues 2-116, tag omitted): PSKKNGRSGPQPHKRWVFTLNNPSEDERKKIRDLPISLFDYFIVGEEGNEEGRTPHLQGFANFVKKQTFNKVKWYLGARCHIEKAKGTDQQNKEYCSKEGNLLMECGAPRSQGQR
Protocol: as §1

[8] = tested on: T8, Rep nickase domain of tomato golden mosaic virus
T8 sequence (protein, residues 1-124, tag omitted): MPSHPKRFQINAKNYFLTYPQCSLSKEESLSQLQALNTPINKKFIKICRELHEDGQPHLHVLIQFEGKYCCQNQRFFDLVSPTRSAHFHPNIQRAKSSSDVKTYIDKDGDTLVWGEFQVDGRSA
Protocol: as §1

[9] = tested on: T9, Rep nickase domain of tomato yellow leaf curl virus
T9 sequence (protein, residues 1-136, tag omitted): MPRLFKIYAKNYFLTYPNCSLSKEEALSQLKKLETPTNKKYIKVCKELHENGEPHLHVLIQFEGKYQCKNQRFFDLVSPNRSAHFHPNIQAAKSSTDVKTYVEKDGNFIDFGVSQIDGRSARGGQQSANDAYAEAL
Protocol: as §1

[10] = tested on: T10, Rep nickase domain of wheat dwarf virus
T10 sequence (protein, residues 1-137, tag omitted): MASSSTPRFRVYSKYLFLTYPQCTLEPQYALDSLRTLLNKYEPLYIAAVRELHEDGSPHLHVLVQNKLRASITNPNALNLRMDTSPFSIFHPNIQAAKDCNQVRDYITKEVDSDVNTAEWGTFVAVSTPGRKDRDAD
Protocol: as §1

Sequence	uncleaved DNA left (log2) [1]	uncleaved DNA left (log2) [2]	uncleaved DNA left (log2) [3]	uncleaved DNA left (log2) [4]	uncleaved DNA left (log2) [5]	uncleaved DNA left (log2) [6]	uncleaved DNA left (log2) [7]	uncleaved DNA left (log2) [8]	uncleaved DNA left (log2) [9]	uncleaved DNA left (log2) [10]
AGAGCTG	-0.0497	-0.00106	0.17	1.05	0.0117	1.72	0.063	0.0633	-0.088	-0.0296
TTTGCAT	0.0785	-0.0124	-0.526	-0.728	0.0123	-0.98	0.0294	-0.0396	0.0717	-0.0997
CCTCCAA	-0.0788	0.00749	-0.0052	-0.12	0.0158	-0.494	0.0437	-0.102	-0.00386	0.0752
TATCGTT	-0.645	-0.506	-1.92	-3.02	-0.0333	-0.835	-3.01	-0.327	-0.205	-0.36
GCGGAAC	-0.0561	-0.0649	0.474	1.26	-0.207	1.79	-0.0219	-0.0778	-0.135	0.0166
TCATACC	-0.148	0.00545	-0.0864	-1.43	-0.0958	-0.392	-2.8	-0.0143	0.0447	-0.0381
TATAAAA	-0.0249	0.0339	-0.0314	-0.543	0.017	-0.401	0.0711	0.0937	-0.1	0.0726
CACCAAG	-0.0343	0.105	-0.881	-0.282	0.0281	-0.951	0.0885	-0.151	0.0331	-0.0507
CGGATTT	0.0912	0.0639	0.249	-0.172	-0.144	0.993	-0.116	-0.106	0.00281	0.073
GGATCCA	0.0529	0.0632	0.429	0.955	0.0721	1.37	0.155	0.0129	0.109	0.0957
CGTTTGA	-0.0332	-0.012	-0.13	-0.0988	0.0372	-0.613	0.0491	-0.0534	-0.00446	0.0464
CTAAGTC	0.109	0.0468	-3.24	-2.97	0.079	-1.82	0.0217	-0.95	0.1	-1.89
TATGCCA	-0.0642	-0.0381	-0.335	-2.19	0.0568	-0.968	-0.232	-0.0996	-0.00923	-0.0769
CCTTACG	-0.134	0.0402	-0.898	-0.209	0.0232	-0.923	0.173	-0.215	-0.0613	-0.225
AGATTTC	0.177	0.127	0.163	0.156	0.11	-0.326	0.12	0.0079	0.0807	0.102
TCTCGTC	-0.00699	-0.112	0.0514	-0.278	-0.0488	-0.687	-0.148	-0.168	-0.184	-0.144
GAACACC	-0.0912	-0.00551	0.185	0.196	-0.0427	0.874	-0.0403	-0.0441	-0.0468	0.0319
CGGAATA	0.0155	-0.0349	-0.0167	-0.245	0.02	0.313	-0.0952	-0.0869	0.0191	0.148
TTCCTAC	-0.118	-0.156	0.028	-1.61	0.0466	-0.233	-0.168	-0.0318	0.0122	-0.00417
CCTAACC	-0.419	-0.178	-0.332	-1.83	-0.101	-0.769	-0.789	-0.0884	-0.111	-0.158

Sequence	uncleaved DNA left (log2) [1]	uncleaved DNA left (log2) [2]	uncleaved DNA left (log2) [3]	uncleaved DNA left (log2) [4]	uncleaved DNA left (log2) [5]	uncleaved DNA left (log2) [6]	uncleaved DNA left (log2) [7]	uncleaved DNA left (log2) [8]	uncleaved DNA left (log2) [9]	uncleaved DNA left (log2) [10]
CCAACGT	-0.0154	-0.176	-0.0224	-0.658	-0.104	-0.604	0.0328	-0.108	-0.121	-0.162
TCTCAAT	0.0816	-0.146	0.146	-0.373	0.141	-0.124	-0.206	0.0207	0.0961	0.0418
CGCTTTC	0.0262	-0.0982	-0.0313	-0.141	-0.0243	-0.564	0.0598	-0.0629	-0.106	-0.0687
CTGCTGC	0.0141	-0.0378	-0.15	-0.0378	0.145	-0.353	0.271	-0.023	0.000186	0.0394
CCTTTGG	0.0395	-0.0079	-0.507	-0.383	-0.127	-0.956	0.261	0.0725	0.0543	-0.0261
CTTCTTA	0.00144	0.0821	0.0847	-1.25	0.0461	-0.462	-0.233	0.166	0.0645	0.174
CTTGAGA	0.0264	0.00637	-0.34	-0.223	0.0434	-1.11	0.11	-0.0961	0.129	-0.106
AATCAAG	-0.0173	-0.0406	-0.909	-0.526	0.0133	-1.28	0.156	-0.0721	-0.0173	-0.175
GCGTGAG	-0.0916	-0.129	-0.484	-0.202	-0.228	-0.976	0.0936	-0.0567	-0.0299	-0.00578
GCCAGAA	0.0253	0.037	0.28	0.617	0.00485	0.0282	0.0764	0.149	0.0259	0.0898
GGTAGCA	0.0934	0.061	0.431	1.14	-0.0247	1.4	0.112	-0.012	0.0622	0.0225
CAACCCA	-0.325	-0.026	-0.172	-2.22	0.0543	-0.504	-1.46	-0.0027	-0.0177	0.0541
CGTAAAT	-0.0135	-0.0573	-0.0397	-0.187	0.0181	-0.208	-0.574	-0.0597	0.0229	0.0137
CAAACGC	-0.204	-0.096	-0.478	-0.767	-0.17	-1.1	0.0485	-0.206	-0.194	-0.14
GAGCGTA	-0.0469	-0.0568	-0.269	-0.187	0.0592	-0.0191	-0.531	-0.0774	-0.117	-0.0244
TACGATT	0.0386	-0.068	-2.69	-2.77	0.0258	-0.476	-1.65	-0.346	-0.0771	-0.317
CTTACCA	-0.0985	0.0426	-0.262	-2.53	-0.116	-0.396	-0.733	-0.195	0.0896	0.0628
ATAGCCG	0.0212	0.0284	-0.891	-0.00388	0.0807	-0.871	0.128	-0.107	-0.031	-0.161
TAGCGTC	-0.0182	-0.132	-0.427	-0.751	-0.0172	-0.848	-0.0477	-0.177	-0.134	-0.0662
GCCAATA	0.0134	0.057	0.186	-0.0248	0.0616	0.11	0.116	0.0228	0.226	0.043

Sequence	uncleaved DNA left (log2) [1]	uncleaved DNA left (log2) [2]	uncleaved DNA left (log2) [3]	uncleaved DNA left (log2) [4]	uncleaved DNA left (log2) [5]	uncleaved DNA left (log2) [6]	uncleaved DNA left (log2) [7]	uncleaved DNA left (log2) [8]	uncleaved DNA left (log2) [9]	uncleaved DNA left (log2) [10]
ATGCATT	0.12	0.0104	-0.0875	-1.45	0.0612	-0.417	-0.756	0.0334	0.239	0.139
AAATTCG	-0.0594	0.0161	-0.771	0.448	-0.0451	-0.711	0.0432	0.0421	0.0798	-0.0667
GCGGTGT	-0.0772	-0.0725	0.203	0.489	-0.12	0.843	0.0362	-0.149	-0.0598	-0.245
CCATGAG	0.0507	-0.0939	-0.604	0.651	-0.0527	-0.416	0.154	-0.0276	-0.0156	-0.0672
GTCGCAA	0.2	0.153	0.528	1.6	0.0681	1.92	-0.0144	0.189	0.0946	0.107
CACCTAA	-0.0198	0.00426	-0.24	-1.5	0.00997	-0.776	-0.26	-0.0326	-0.032	-0.0866
CGGGGGA	-0.0314	0.0284	0.65	1.04	-0.0419	1.74	0.082	-0.0487	-0.0365	-0.0822
GCGATAA	0.0256	0.0603	0.0796	0.49	-0.0743	0.6	-0.0104	0.119	0.0094	0.136
TTACTAT	0.0232	-0.0513	0.0444	-2.12	0.0439	-0.356	-0.294	-0.142	-0.000825	-0.0314
CCAGATC	0.105	0.122	0.206	-0.0533	0.0332	-0.495	-0.0117	0.081	0.0842	0.083
ATTCACT	-2.9	-1.56	-0.242	-2.63	-0.0663	-0.771	-3.48	-0.105	0.0122	-0.122
CCAGCAT	0.0774	-0.0156	-0.0864	-0.327	-0.000398	-0.586	0.0749	-0.000586	-0.0141	-0.0119
GCTTCGA	-0.013	-0.085	-0.32	-0.235	0.00714	-0.979	-0.0251	0.0291	0.0113	-0.0906
GTATACG	0.0334	-0.00857	-0.546	-0.644	-0.033	-0.885	0.173	0.0297	0.0488	-0.094
AGTATAA	0.102	0.00436	-0.0205	-0.0506	-0.0201	-0.211	-0.861	0.0196	0.0318	0.0393
GCTGTGA	0.0309	-0.126	-0.158	0.0221	-0.133	-0.465	0.0555	0.0666	0.0641	-0.0883
CCCACTT	0.0482	-0.0626	-0.0526	-2.25	0.0866	-0.261	-0.201	0.00407	-0.128	-0.00611
ATGTGCT	-0.579	-0.0326	-0.677	-1.55	-0.17	-0.821	-3.13	-0.0613	0.00607	-0.065
CGTTGTG	0.0413	-0.0732	-0.611	0.466	-0.0723	-0.421	-0.0447	-0.217	0.0595	-0.115
AAGACGT	0.044	-0.0117	0.166	0.619	-0.0208	0.577	-0.887	-0.056	-0.0644	0.0327
